# According to PubChem BioAssay AID624417 (National Center for Advancing Translational Sciences (NCATS), 2012):
# The campaign covered roughly 410,000 compounds. About 6,400 (1.6%) were called active. Inconclusive means that the source gave no clear call. Such entries were picked first, then a sample of the others. The call rests on the fitted dose curve; in most records, active means well fitted inhibition curve with a large enough effect; inconclusive means small, poorly fitted or top-dose-only effect; inactive means no such curve, though single readings can be large or run the other way. Potencies of inconclusive entries are left out as doubtful fits.
# Target: Glucagon-like peptide 1 receptor (Homo sapiens) (UniProt P43220)
# Chain of UniProt P43220 (P43220 whole entry, looked up): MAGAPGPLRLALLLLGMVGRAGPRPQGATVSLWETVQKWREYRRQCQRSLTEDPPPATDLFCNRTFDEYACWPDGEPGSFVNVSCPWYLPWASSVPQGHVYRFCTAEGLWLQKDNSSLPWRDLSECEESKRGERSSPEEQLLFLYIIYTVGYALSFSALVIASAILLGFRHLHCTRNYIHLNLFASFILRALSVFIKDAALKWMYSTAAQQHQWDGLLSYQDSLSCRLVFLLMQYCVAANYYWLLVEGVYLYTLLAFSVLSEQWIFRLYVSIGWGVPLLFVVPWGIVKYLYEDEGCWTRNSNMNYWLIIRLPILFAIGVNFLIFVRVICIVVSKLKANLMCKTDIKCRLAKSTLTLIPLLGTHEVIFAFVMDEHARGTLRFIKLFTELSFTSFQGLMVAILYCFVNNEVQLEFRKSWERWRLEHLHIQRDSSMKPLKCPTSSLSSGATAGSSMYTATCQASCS
# Assay: qHTS of GLP-1 Receptor Inverse Agonists (Inhibition Mode); further: nearly all actives have a fitted effect of over 55% in size
# Details: HEK293 GLP-1R CRE-luciferase, luminescence, 24 h, GLP-1R form is constitutively active; activity change, negative = inhibition: at 38.3 µM (top of the series) unless noted
# How it was run: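 Seeding at 200 cells/uL, 12 h culture, 24 hr compound treatment, then luciferase reagent and a luminescence read; cells are HEK293 stably expressing a constitutively active GLP-1R plus cAMP-responsive luciferase.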
# On the % scale 0 is the no-effect control and ±100 the full control effect; potency means the concentration at half of the fitted maximal effect; tags describe the fitted curve by direction and shape.
SMILES,Potency,"activity change, negative = inhibition"
O=C(c1ccc(S(=O)(=O)Nc2ccccc2)cc1)N1CCC1,"inconclusive [inhibitor, single point]",
CC1CC(C)CN(CCOc2cccc3ccccc23)C1 (stereo not drawn),"inconclusive [inhibitor, full curve, poor fit]",
CCCCNC(=O)c1ccc2nc(CC)c(N(C)Cc3ccc(OC)cc3)n2c1,"inconclusive [inhibitor, single point]",
N#C/C(=C/c1ccc(N2CCOCC2)o1)c1ccc(Cl)cc1,,inactive: 119%
O=C(NCCC1=CCCCC1)c1ccc(F)cc1,"inconclusive [inhibitor, partial curve, poor fit]",
CCN(C(=O)COC(=O)CCc1ccccc1)c1ccccc1,"inconclusive [inhibitor, single point]",
CN1CCN(CCNC(=O)Nc2ccc([N+](=O)[O-])cc2)CC1,,inactive: -11.5%
Fc1ccccc1/C=C1\CCCC2=C1NC(=S)NC2c1ccccc1F (stereo not drawn),"inconclusive [inhibitor, single point]",
COc1ccc(COc2cc(-c3cccc(OC)c3)nc3ccc(NC(=O)C(C)C)cc23)cc1,"inconclusive [inhibitor, full curve, poor fit]",
COc1ccc(CC(=O)N(Cc2ccccc2)C(C)C)cc1,"inconclusive [inhibitor, single point]",
COc1ccc(/C=C/C(=O)NC(=S)NNC(=O)c2cnccn2)cc1,"inconclusive [inhibitor, single point]",
COc1cc(CNCCN2CCOCC2)ccc1OCc1cccc(Cl)c1,"inconclusive [inhibitor, partial curve]",
COc1ccc(CNC(=O)CCc2nc(-c3ccc(C)cc3)no2)c(OC)c1,,inactive: -5.08%
c1ccc(CN2CCN(CCCNc3ccc4nnc(-c5ccccc5)n4n3)CC2)cc1,"inconclusive [inhibitor, partial curve, poor fit]",
O=C1NC2(CCCCCC2)C(=O)N1Cc1ccc(Cl)cc1Cl,"inconclusive [inhibitor, partial curve, poor fit]",
CC(=O)c1c(O)cc(=O)n(-c2ccccc2)c1-c1cccc2ccccc12,"inconclusive [inhibitor, full curve, poor fit]",
CC(NS(=O)(=O)c1ccc(Br)cc1)C(c1cccs1)N1CCN(C)CC1 (stereo not drawn),"inconclusive [inhibitor, single point]",
COCCOC(=O)C1=C(C)NC(=O)NC1c1ccc(-c2cc(Cl)ccc2Cl)o1 (stereo not drawn),"inconclusive [inhibitor, single point]",
